# Reference: PubChem BioAssay (EPA / NIEHS)
# Where “and” joins values, the source holds several entries; their conditions need not be identical. Equal entries are not always repeated. For some of these results: This list holds what a sample rich in hits left over. Results filed as inconclusive are left out. A structure can be active in one record and inactive in another. The list shows a part of the results, in another mix than the full data. Calls of active or inactive are those of the source. How the source made its calls, unless noted: active means hit-call score of the fitted dose curve at least 0.9, where 1 is the maximum; inactive means score below 0.9.
# What was measured:
# [1] = read-out: Matrix Metallopeptidase 1 (MMP1), MMP1 (gene 4312); test: BSK_BE3C_MMP1: BioMAP Diversity Plus: BE3C Assay for Matrix Metallopeptidase 1 (MMP1) Biomarker Activity (AID 2283024); settings: actives raise or lower the signal; primary human bronchial epithelial cells
# Method in brief: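 ELISA read-out of MMP1 in human lung bronchial epithelial primary cultures, 24 h post-dose; bidirectional curve fit vs DMSO baseline, gain or loss of signal scored.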
# [2] = read-out: Interleukin-8 (IL8), CXCL8 (gene 3576); test: BSK_CASM3C_IL8: BioMAP Diversity Plus: CASM3C Assay for Interleukin-8 (IL8) Biomarker Activity (AID 2283042); settings: actives raise or lower the signal; primary human coronary artery smooth muscle cells;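 further: IL-8 protein level quantified by ELISA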
# [3] = BSK_SAg_SRB: Viability Assessment in the BioMAP Diversity Plus: SAg Assay (AID 2283096); settings: primary human HUVEC with PBMC;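 further: cells read one day after compound addition; hits may be either gain or loss of signal compared with DMSO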
# Method in brief: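 This overt-cytotoxicity endpoint quantifies protein in human endothelial/PBMC co-cultures at 24 h using SRB absorbance (560 nm) after trichloroacetic acid fixation. Values reflect signal change from the DMSO negative control, fitted bidirectionally.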
# [4] = molecular target: Estrogen receptor (Homo sapiens) + Estrogen receptor beta (Homo sapiens) (UniProt P03372+Q92731); test: OT_ER_ERaERb_1440: Odyssey Thera (OT) 24-hour HEK293T Protein-Complementation Assay for Estrogen Receptor-alpha/-beta Homodimer (AID 2283356; active means hit-call score of the fitted dose curve at least 0.9, where 1 is the maximum;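 further: heteromer of ER alpha and ER beta binding domains; hits raise reporter fluorescence and both agonists and antagonists give an increase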)
# Method in brief: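 Fragment complementation between ER alpha (310-547) and ER beta (263-489) ligand-binding domains in HEK293T cells; signal read 24 h post-dosing by laser scanning cytometer. Gain of fluorescence relative to DMSO fitted.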
# [5] = read-out: ABC Transporter (ABCB1), ABCB1 (gene 5243); test: CLD_ABCB1_48hr: CellzDirect (CLD) Gene Expression Assay for ABC Transporter (ABCB1) at 48 hours (AID 2283695; active means hit-call score of the fitted dose curve at least 0.9, where 1 is the maximum)
# Method in brief: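 ABCB1 mRNA was measured by quantitative nuclease protection assay (chemiluminescence) 48 h after dosing. Human hepatocyte cultures from two separate donors received fresh dosing solutions daily for two days, with 0.2% DMSO as vehicle. Positive-direction fit against DMSO.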
# [6] = read-out: Pselectin, SELP (gene 6403); test: BSK_4H_Pselectin: BioMAP Diversity Plus: 4H Assay for Pselectin Biomarker Activity (AID 2283026); settings: actives raise or lower the signal; primary human endothelial cells (HUVEC)
# Method in brief: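 HUVEC, 24 h chemical exposure; P-selectin read by ELISA. Bidirectional curve fit vs DMSO baseline; gain or loss of signal scored.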
# [7] = read-out: Interleukin-1 alpha (IL1a), IL1A (gene 3552); test: BSK_KF3CT_IL1a: BioMAP Diversity Plus: KF3CT Assay for Interleukin-1 alpha (IL1a) Biomarker Activity (AID 2283070); settings: actives raise or lower the signal; primary human keratinocytes with fibroblasts
# Method in brief: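 Readout is IL-1a level by ELISA, compared bidirectionally with DMSO as baseline. Cells: human keratinocytes co-cultured with foreskin fibroblasts, harvested 24 h post-dose.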
# [8] = read-out: Interleukin-1 alpha (IL1a), IL1A (gene 3552); test: BSK_LPS_IL1a: BioMAP Diversity Plus: LPS Assay for Interleukin-1 alpha (IL1a) Biomarker Activity (AID 2283080); settings: actives raise or lower the signal; primary human HUVEC with PBMC
# Method in brief: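 Readout is IL-1a level by ELISA, 24 h post-dose, fitted as gain or loss relative to DMSO. System: LPS-activated human primary co-culture of vascular endothelium and peripheral blood mononuclear cells, with parallel SRB total-protein cytotoxicity.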
# [9] = molecular target: human CYP19A1, CYP19A1 (gene 1588) (UniProt P11511); test: NVS_ADME_hCYP19A1: NovaScreen (NVS) CYP450-related Enzyme Activity (ADME) Assay for human CYP19A1 (AID 2283098; active means hit-call score of the fitted dose curve at least 0.9, where 1 is the maximum)
# Method in brief: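 Compounds were first screened at 10 uM in duplicate against purified enzyme, with a fluorogenic substrate and fluorescence intensity detection after 0.5 h. Inhibition appears as reduced signal against acetonitrile control.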
# [10] = molecular target: Sodium channel protein type 1 subunit alpha (Rattus norvegicus) (UniProt P04774); test: NVS_IC_rNaCh_site2: NovaScreen (NVS) Ion Channel Assay for rat Sodium Channel, Site 2 (NaCh) (AID 2283322; active means hit-call score of the fitted dose curve at least 0.9, where 1 is the maximum;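 further: hit means loss of radioligand binding signal relative to DMSO so AC50 marks displacement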)
# [11] = CEETOX_H295R_OHPROG: CeeTox H295R High-throughput Steroidogenesis Assay for OH-Progesterone (OHPROG) (AID 2283435); settings: actives raise or lower the signal;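 further: human adrenal H295R cells primed 48 h with 10 µM forskolin; 17alpha-hydroxyprogesterone secreted into medium measured by HPLC-MS/MS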
# [12] = Tanguay_ZF_120hpf_SOMI_legacy: (Legacy) Oregon State University Tanguay Lab 120 Hour Post-fertilization zebrafish Assay for Somite Malformation (AID 2283647; active means hit-call score of the fitted dose curve at least 0.9, where 1 is the maximum)
# Method in brief: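 Binary somite-defect scoring at 120 hpf, omitted for embryos that died, in wild-type (Tropical 5D) zebrafish with chorion removed by pronase at 4 hpf; static exposure began 6 hpf, single embryos per well, 28C, 0.64% DMSO; fitted positive versus DMSO.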
# [13] = read-out: Interferon-gamma inducible Protein 10 (IP10), CXCL10 (gene 3627); test: BSK_BE3C_IP10: BioMAP Diversity Plus: BE3C Assay for Interferon-gamma inducible Protein 10 (IP10) Biomarker Activity (AID 2283034); settings: actives raise or lower the signal; primary human bronchial epithelial cells
# Method in brief: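 ELISA readout of IP-10 in BE3C system: primary human bronchial epithelial cells, 24 h post-dosing; bidirectional curve fit vs DMSO baseline.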
# [14] = read-out: CD69, CD69 (gene 969); test: BSK_SAg_CD69: BioMAP Diversity Plus: SAg Assay for CD69 Biomarker Activity (AID 2283089); settings: actives raise or lower the signal; primary human HUVEC with PBMC;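 further: cell surface CD69 protein quantified by ELISA with fluorescence detection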
# Method in brief: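 Values derive from bidirectional fitting relative to DMSO vehicle. Cells: umbilical vein endothelium plus peripheral blood mononuclear cells, treated 24 h before fluorescent ELISA for CD69.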
# [15] = read-out: Urokinase-type plasminogen activator receptor (uPAR), PLAUR (gene 5329); test: BSK_4H_uPAR: BioMAP Diversity Plus: 4H Assay for Urokinase-type plasminogen activator receptor (uPAR) Biomarker Activity (AID 2283030); settings: actives raise or lower the signal; primary human endothelial cells (HUVEC)
# Method in brief: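 uPAR level read by ELISA on HUVEC cultures (BioMAP 4H) 24 h post-dosing, analyzed for gain or loss relative to DMSO. Parallel SRB staining assessed overt cytotoxicity.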
# [16] = read-out: Interleukin-8 (IL8), CXCL8 (gene 3576); test: BSK_LPS_IL8: BioMAP Diversity Plus: LPS Assay for Interleukin-8 (IL8) Biomarker Activity (AID 2283078); settings: actives raise or lower the signal; primary human HUVEC with PBMC
# Method in brief: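 ELISA read-out of IL-8 after 24 h chemical treatment of LPS-activated endothelial/PBMC human primary co-cultures. Changes either up or down relative to DMSO; overt cytotoxicity checked by sulforhodamine B staining in parallel wells.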
# [17] = test system: frog Estrogen Receptor (ESR1), gene 398734; test: ATG_frER1_XSP1: Attagene TRANS-FACTORIAL Multi-Species (XSP1) HepG2 Assay for frog Estrogen Receptor (ESR1) (AID 2283777; active means hit-call score of the fitted dose curve at least 0.9, where 1 is the maximum)
# Method in brief: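 After transient transfection and 24 h compound treatment, total RNA from HepG2 cells was reverse-transcribed, amplified, FAM-labeled and resolved by capillary electrophoresis. Signal increases were fitted against DMSO controls.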
# [18] = molecular target: human Phosphatase and Tensin Homolog (PTEN), PTEN (gene 5728) (UniProt P60484); test: NVS_ENZ_hPTEN: NovaScreen (NVS) Enzymatic Assay for human Phosphatase and Tensin Homolog (PTEN) (AID 2283203; active means hit-call score of the fitted dose curve at least 0.9, where 1 is the maximum)
# [19] = read-out: DNA damage-inducible transcript 3 (DDIT3), DDIT3 (gene 1649); test: LTEA_HepaRG_DDIT3: Life Technologies and Expression Analysis (LTEA) Assay for DNA damage-inducible transcript 3 (DDIT3) using HepaRG (AID 2283488); settings: actives raise or lower the signal; mRNA level, 48 h
# Method in brief: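 qRT-PCR readout (Fluidigm TaqMan), housekeeping-normalized to ACTB, GAPDH, POLR2A. HepaRG cells, 48 h exposure, 8-point half-log series from 100 uM in 0.5% DMSO, duplicates. Gain or loss of signal fitted against DMSO baseline.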
# [20] = read-out: Plasminogen activator inhibitor-1 (PAI1), SERPINE1 (gene 5054); test: BSK_BE3C_PAI1: BioMAP Diversity Plus: BE3C Assay for Plasminogen activator inhibitor-1 (PAI1) Biomarker Activity (AID 2283037); settings: actives raise or lower the signal; primary human bronchial epithelial cells
# Method in brief: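 ELISA read-out of PAI-1 from human bronchial epithelial primary cells, 24 h post-dosing; bidirectional curve fit vs DMSO baseline, gain or loss of signal scored.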
# [21] = read-out: ABC Transporter (ABCB11), ABCB11 (gene 8647); test: LTEA_HepaRG_ABCB11: Life Technologies and Expression Analysis (LTEA) Assay for ABC Transporter (ABCB11) using HepaRG (AID 2283463); settings: actives raise or lower the signal; mRNA level, 48 h
# Method in brief: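 Using HepaRG cultures held in 0.5% DMSO, chemicals were tested at half-log dilutions from 100 uM for 48 h. Induction or suppression of ABCB11 mRNA, normalized to ACTB, GAPDH and POLR2A, was fitted bidirectionally against vehicle.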
# [22] = read-out: Transforming growth factor beta 1 (TGFb1), TGFB1 (gene 7040); test: BSK_BE3C_TGFb1: BioMAP Diversity Plus: BE3C Assay for Transforming growth factor beta 1 (TGFb1) Biomarker Activity (AID 2283036;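 further: TGF-b1 protein level measured by ELISA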); settings: actives raise or lower the signal; primary human bronchial epithelial cells
# Method in brief: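 Read-out: ELISA for TGF-b1 in primary human bronchial epithelial cultures, 24 h post-dose. Bidirectional curve fitting vs DMSO control; gain or loss of signal both scored.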
# [23] = read-out: Monocyte Chemoattractant Protein-1 (MCP1), CCL2 (gene 6347); test: BSK_CASM3C_MCP1: BioMAP Diversity Plus: CASM3C Assay for Monocyte Chemoattractant Protein-1 (MCP1) Biomarker Activity (AID 2283046); settings: actives raise or lower the signal; primary human coronary artery smooth muscle cells;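 further: MCP-1 level quantified by ELISA 24 h after dosing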
# [24] = TOX21_p53_BLA_p4_viability: Viability Assessment in the Tox21 HCT-116 p53 Agonism Beta-lactamase Assay, Phase 4 (AID 2283597; active means hit-call score of the fitted dose curve at least 0.9, where 1 is the maximum;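 further: hits lower the luminescence signal meaning cytotoxicity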)
# Method in brief: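 Cytotoxicity as reduced cellular ATP (CellTiter-Glo luminescence, 30 min room temperature), measured in the same wells following the CCF4 FRET p53 reading. Human HCT-116 cells received compounds in DMSO (217-fold dilution) for 16 h.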
# Chain of UniProt P11511 (P11511 whole entry, looked up): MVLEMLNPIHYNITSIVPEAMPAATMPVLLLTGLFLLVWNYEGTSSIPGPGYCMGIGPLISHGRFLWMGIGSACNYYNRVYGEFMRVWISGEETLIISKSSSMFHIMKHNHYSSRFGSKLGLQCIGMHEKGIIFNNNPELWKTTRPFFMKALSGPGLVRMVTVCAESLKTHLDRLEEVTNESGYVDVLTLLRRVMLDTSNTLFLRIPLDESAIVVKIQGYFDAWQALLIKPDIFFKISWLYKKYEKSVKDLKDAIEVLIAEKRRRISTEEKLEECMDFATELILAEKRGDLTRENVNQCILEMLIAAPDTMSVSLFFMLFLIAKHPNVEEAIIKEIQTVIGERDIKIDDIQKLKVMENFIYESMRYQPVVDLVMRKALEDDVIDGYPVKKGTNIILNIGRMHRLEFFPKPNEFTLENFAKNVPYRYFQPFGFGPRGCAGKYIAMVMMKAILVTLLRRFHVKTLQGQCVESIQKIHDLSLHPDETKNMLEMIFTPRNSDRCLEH
# Chain of UniProt P03372 (P03372 whole entry, looked up, the tested form may be a part): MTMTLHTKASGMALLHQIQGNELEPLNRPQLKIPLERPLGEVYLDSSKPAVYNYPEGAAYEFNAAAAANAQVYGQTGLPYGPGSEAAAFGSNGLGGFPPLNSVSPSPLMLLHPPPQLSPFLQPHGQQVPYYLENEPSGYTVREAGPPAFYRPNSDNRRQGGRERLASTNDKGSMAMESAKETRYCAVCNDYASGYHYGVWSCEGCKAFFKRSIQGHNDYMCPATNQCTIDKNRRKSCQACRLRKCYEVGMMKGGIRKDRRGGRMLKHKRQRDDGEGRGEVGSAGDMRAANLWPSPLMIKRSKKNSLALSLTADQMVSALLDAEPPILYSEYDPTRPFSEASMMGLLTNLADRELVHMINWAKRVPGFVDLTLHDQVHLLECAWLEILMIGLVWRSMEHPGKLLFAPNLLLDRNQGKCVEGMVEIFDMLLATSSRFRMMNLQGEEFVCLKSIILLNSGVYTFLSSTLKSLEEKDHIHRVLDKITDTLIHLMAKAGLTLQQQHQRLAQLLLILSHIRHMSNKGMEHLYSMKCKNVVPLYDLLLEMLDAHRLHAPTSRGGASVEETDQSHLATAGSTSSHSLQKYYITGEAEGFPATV
# Chain of UniProt P03372 (Q92731 whole entry, looked up, the tested form may be a part): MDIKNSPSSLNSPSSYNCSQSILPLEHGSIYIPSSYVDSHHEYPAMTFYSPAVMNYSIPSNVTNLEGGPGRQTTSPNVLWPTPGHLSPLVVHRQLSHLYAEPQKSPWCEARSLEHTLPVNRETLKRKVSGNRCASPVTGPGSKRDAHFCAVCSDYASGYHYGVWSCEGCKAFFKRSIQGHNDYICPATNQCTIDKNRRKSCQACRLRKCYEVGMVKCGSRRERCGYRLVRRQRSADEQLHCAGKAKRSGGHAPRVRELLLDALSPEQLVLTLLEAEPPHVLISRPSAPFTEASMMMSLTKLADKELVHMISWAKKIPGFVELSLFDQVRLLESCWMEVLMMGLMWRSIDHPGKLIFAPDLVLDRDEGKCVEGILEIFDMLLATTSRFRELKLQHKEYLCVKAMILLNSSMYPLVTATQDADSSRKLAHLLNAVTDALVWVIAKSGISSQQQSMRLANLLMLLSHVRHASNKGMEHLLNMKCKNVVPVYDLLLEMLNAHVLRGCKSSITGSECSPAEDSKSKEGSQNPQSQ
# Chain of UniProt P60484 (P60484 whole entry, looked up): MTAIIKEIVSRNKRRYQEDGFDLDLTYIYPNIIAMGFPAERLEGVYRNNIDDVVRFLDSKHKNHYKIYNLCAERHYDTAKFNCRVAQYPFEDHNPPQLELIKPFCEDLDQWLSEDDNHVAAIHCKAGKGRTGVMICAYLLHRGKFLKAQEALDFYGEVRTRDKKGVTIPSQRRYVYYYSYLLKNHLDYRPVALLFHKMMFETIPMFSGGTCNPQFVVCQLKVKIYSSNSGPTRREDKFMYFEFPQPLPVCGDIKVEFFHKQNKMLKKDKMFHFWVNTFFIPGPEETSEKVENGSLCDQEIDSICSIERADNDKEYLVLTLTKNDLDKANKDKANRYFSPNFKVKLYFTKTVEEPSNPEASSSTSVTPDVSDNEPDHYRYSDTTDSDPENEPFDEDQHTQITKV
smiles,measurement,setting,value
CCCCNC(=O)OCC#CI,AC50,[1],active: 33.1 µM
same,AC50,[2],active: 36.7 µM
same,AC50,[3],active: 27.2 µM
same,AC50,[4],active: 11.9 µM
same,outcome,[5],inactive
CC(C)(C)C(O)C(Oc1ccc(Cl)cc1)n1cncn1 (stereo not given),outcome,[6],inactive
same,outcome,[7],inactive
same,outcome,[8],inactive
same,outcome,[9],inactive
same,AC50,[10],active: 25 µM
same,AC50,[11],active: 27.3 µM and active: 25.7 µM
same,AC50,[12],active: 49.6 µM
ClC1=C(Cl)[C@]2(Cl)[C@H]3[C@H]([C@H]4C=C[C@H]3C4)[C@@]1(Cl)C2(Cl)Cl,AC50,[13],active: 6.62 µM
same,AC50,[14],active: 6.42 µM
CSC(=O)c1c(C(F)F)nc(C(F)(F)F)c(C(=O)SC)c1CC(C)C,AC50,[15],active: 13.3 µM
same,AC50,[16],active: 14.8 µM
same,outcome,[17],inactive
CC(C)(C)C(O)(CCc1ccc(Cl)cc1)Cn1cncn1 (stereo not given),outcome,[15],inactive
same,outcome,[18],inactive
same,AC50,[19],active: 72.1 µM
CCC(C)(NC(=O)c1cc(Cl)c(C)c(Cl)c1)C(=O)CCl (stereo not given),AC50,[20],active: 20 µM
same,AC50,[21],active: 66.5 µM
CC(C)N1C(=O)c2ccccc2NS1(=O)=O,outcome,[22],inactive
same,outcome,[23],inactive
same,outcome,[24],inactive
